# A lower IC50 marks a more sensitive line; a limit (>, <) means that the fit lies beyond the doses tested. AUC sums up the same curve from the lowest dose to the 256-fold higher top dose; the more sensitive the line, the further below 1. For some of these results: Any top dose called inferred was calculated from the reported fits. For some of these results: Where an entry number is given, a second screen of the drug exists; the two often differ.
# Key:
# Assay in all cases: Viability of human cancer cell lines after 72 h of drug (GDSC screen)
# PAC-1 = compound: C=CCc1cccc(/C=N/NC(=O)CN2CCN(Cc3ccccc3)CC2)c1O [PAC-1]; conditions: top dose 2.56 µM
# Description: (§1)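 Human cancer cell lines in 384-well plates, medium with 10% serum, drug for 72 h over a 256-fold dose range (nine 2-fold or five 4-fold steps up to the top dose). Adherent lines were fixed and stained with the nucleic acid dye Syto60, suspension lines read with resazurin; signal relative to control wells, capped at 0 and 100%. One two-parameter sigmoid per drug and line, fitted in a mixed model over all curves with the slope shared within a line.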
# KIN001-135 = compound: COc1cc2ncn(-c3cc(OCc4ccccc4S(C)(=O)=O)c(C#N)s3)c2cc1OC [KIN001-135]; conditions: top dose 5 µM; top dose inferred
# Description: as §1
# BMS-708163 = compound: NC(=O)[C@@H](CCC(F)(F)F)N(Cc1ccc(-c2ncon2)cc1F)S(=O)(=O)c1ccc(Cl)cc1 [BMS-708163]; conditions: top dose 5 µM; screen: GDSC drug entry 1072; top dose inferred
# Description: as §1
# Parthenolide = compound: C=C1C(=O)O[C@H]2[C@H]1CC/C(C)=C/CC[C@@]1(C)O[C@@H]21 [Parthenolide]; conditions: top dose 5 µM
# Description: as §1
Cell Line,AUC (PAC-1),IC50 (PAC-1) [µM],AUC (KIN001-135),IC50 (KIN001-135) [µM],AUC (BMS-708163),IC50 (BMS-708163) [µM],AUC (Parthenolide),IC50 (Parthenolide) [µM]
"RPMI-8226 (myeloma, suspension)",0.945,> 2.56,0.969,> 5,0.99,> 5,–,–
"LNCaP-Clone-FGC (prostate, adherent)",0.9,> 2.56,0.981,> 5,0.984,> 5,0.984,> 5
"NCI-H1299 (large cell lung carcinoma, adherent)",0.812,1.77,0.982,> 5,0.907,> 5,0.962,> 5
"KE-37 (lymphoblastic leukaemia, suspension)",0.551,–,0.994,> 5,0.994,> 5,0.969,> 5
"EKVX (lung adenocarcinoma, adherent)",0.908,> 2.56,0.95,> 5,0.968,> 5,0.949,> 5
"OVCAR-4 (ovary, adherent)",0.835,> 2.56,0.908,> 5,0.957,> 5,–,–
"NCI-H250 (small cell lung carcinoma, suspension)",–,–,–,–,–,–,0.971,> 5
"SIG-M5 (acute myeloid leukaemia, suspension)",0.782,0.805,0.994,> 5,–,–,0.962,> 5
"CCRF-CEM (lymphoblastic leukaemia, suspension)",0.717,0.582,0.991,> 5,0.964,> 5,–,–
"D-247MG (glioma, adherent)",–,–,0.98,> 5,0.978,> 5,0.891,> 5
"CAL-148 (breast, suspension)",0.959,> 2.56,0.986,> 5,–,–,0.989,> 5
"CAS-1 (glioma, adherent)",0.899,> 2.56,0.943,> 5,–,–,0.934,> 5
"RL95-2 (endometrium, adherent)",–,–,0.979,> 5,–,–,0.975,> 5
"Calu-6 (lung adenocarcinoma, adherent)",0.98,> 2.56,0.984,> 5,–,–,0.901,> 5
"NB13 (neuroblastoma, adherent)",0.922,> 2.56,0.949,> 5,–,–,0.826,2.57
"GAK (melanoma, adherent)",0.984,> 2.56,–,–,–,–,0.952,> 5
"VA-ES-BJ (soft tissue, adherent)",–,–,0.984,> 5,0.975,> 5,0.889,> 5
"NCI-H226 (lung squamous cell carcinoma, adherent)",–,–,0.969,> 5,0.962,> 5,0.983,> 5
"GA-10 (Burkitt lymphoma, suspension)",–,–,0.953,> 5,0.962,> 5,0.729,1.23
"NB7 (neuroblastoma, adherent)",–,–,0.986,> 5,0.938,> 5,0.867,4.87
"NCI-H748 (small cell lung carcinoma, suspension)",0.926,> 2.56,0.946,> 5,–,–,0.895,> 5
"SKM-1 (haematopoietic neoplasm, suspension)",–,–,0.984,> 5,0.984,> 5,0.983,> 5
"SF539 (glioma, adherent)",0.969,> 2.56,0.981,> 5,0.989,> 5,–,–
"SU-DHL-1 (anaplastic large cell lymphoma, suspension)",0.997,> 2.56,0.994,> 5,–,–,0.997,> 5
"KP-N-YN (neuroblastoma, adherent)",0.863,> 2.56,0.981,> 5,–,–,0.971,> 5

Cell Line,AUC (PAC-1),IC50 (PAC-1) [µM],AUC (KIN001-135),IC50 (KIN001-135) [µM],AUC (BMS-708163),IC50 (BMS-708163) [µM],AUC (Parthenolide),IC50 (Parthenolide) [µM]
"NCI-H1838 (lung adenocarcinoma, adherent)",0.975,> 2.56,0.967,> 5,–,–,0.986,> 5
"DOHH-2 (B-cell lymphoma, suspension)",0.88,> 2.56,0.941,> 5,–,–,0.984,> 5
"HCC-33 (small cell lung carcinoma, adherent)",0.878,> 2.56,0.986,> 5,–,–,0.978,> 5
"Hs-445 (Hodgkin lymphoma, suspension)",0.84,1.57,0.983,> 5,–,–,0.987,> 5
"EW-22 (Ewing sarcoma, adherent)",–,–,0.975,> 5,0.988,> 5,0.984,> 5
"ECC12 (stomach, suspension)",–,–,0.98,> 5,–,–,0.973,> 5
"K-562 (chronic myeloid leukaemia, suspension)",–,–,0.983,> 5,–,–,–,–
"BC-3 (B-cell lymphoma, suspension)",0.957,> 2.56,0.989,> 5,–,–,0.971,> 5
"TALL-1 (T-cell lymphoblastic leukaemia, suspension)",0.983,> 2.56,0.982,> 5,–,–,0.944,> 5
"NU-DUL-1 (B-cell lymphoma, suspension)",0.83,1.19,0.992,> 5,–,–,0.858,2.89
"LOXIMVI (melanoma, semi-adherent)",0.909,> 2.56,0.987,> 5,0.985,> 5,–,–
"MHH-NB-11 (neuroblastoma, adherent)",0.972,> 2.56,0.979,> 5,–,–,0.965,> 5
"NB17 (neuroblastoma, adherent)",–,–,0.97,> 5,0.962,> 5,0.74,–
"NCI-H378 (small cell lung carcinoma, suspension)",–,–,0.983,> 5,–,–,0.986,> 5
"DB (B-cell lymphoma, suspension)",0.958,> 2.56,0.983,> 5,–,–,0.983,> 5
"SU-DHL-8 (B-cell lymphoma, suspension)",0.739,0.728,0.953,> 5,–,–,0.793,2.11
"HCC1599 (breast, suspension)",0.923,> 2.56,0.981,> 5,–,–,0.961,> 5
"THP-1 (acute myeloid leukaemia, suspension)",0.942,> 2.56,0.987,> 5,0.991,> 5,–,–
"KASUMI-1 (acute myeloid leukaemia, suspension)",–,–,0.979,> 5,0.879,> 5,0.949,> 5
"PL-21 (acute myeloid leukaemia, suspension)",0.872,> 2.56,0.977,> 5,–,–,0.946,> 5
"UACC-812 (breast, adherent)",0.991,> 2.56,0.983,> 5,–,–,0.991,> 5
"SCC-15 (head and neck, adherent)",0.972,> 2.56,0.98,> 5,0.834,4.98,–,–
"ES4 (Ewing sarcoma, adherent)",0.798,1.44,0.975,> 5,–,–,0.982,> 5
"NCI-H2171 (small cell lung carcinoma, suspension)",0.992,> 2.56,0.988,> 5,–,–,0.948,> 5
"EW-12 (Ewing sarcoma, suspension)",–,–,0.975,> 5,–,–,0.932,> 5

Cell Line,AUC (PAC-1),IC50 (PAC-1) [µM],AUC (KIN001-135),IC50 (KIN001-135) [µM],AUC (BMS-708163),IC50 (BMS-708163) [µM],AUC (Parthenolide),IC50 (Parthenolide) [µM]
"MOLT-4 (lymphoblastic leukaemia, suspension)",0.856,1.48,0.992,> 5,0.991,> 5,–,–
"MMAC-SF (melanoma, adherent)",0.96,> 2.56,0.984,> 5,–,–,0.952,> 5
"BB49-HNC (head and neck, adherent)",–,–,0.977,> 5,0.802,3.74,0.976,> 5
"NK-92MI (lymphoid neoplasm, suspension)",0.855,1.83,0.987,> 5,–,–,0.832,2.9
"TC-YIK (cervix, suspension)",–,–,0.984,> 5,0.958,> 5,0.991,> 5
"HL-60 (acute myeloid leukaemia, suspension)",0.98,> 2.56,0.99,> 5,0.988,> 5,–,–
"SNB75 (glioma, adherent)",0.942,> 2.56,0.979,> 5,0.974,> 5,–,–
"NCI-H128 (small cell lung carcinoma, suspension)",–,–,0.98,> 5,–,–,0.875,> 5
"TE-441-T (rhabdomyosarcoma, adherent)",0.979,> 2.56,0.969,> 5,–,–,0.974,> 5
"D-336MG (glioma, adherent)",–,–,0.98,> 5,0.98,> 5,0.931,> 5
"SCC-3 (B-cell lymphoma, suspension)",0.996,> 2.56,0.992,> 5,–,–,0.834,2.08
"KP-N-YS (neuroblastoma, adherent)",0.891,> 2.56,0.982,> 5,–,–,0.972,> 5
"RXF393 (kidney, adherent)",0.931,> 2.56,0.978,> 5,0.895,> 5,–,–
"A375 (melanoma, adherent)",0.789,0.921,–,–,0.98,> 5,–,–
"SW1088 (glioma, adherent)",0.968,> 2.56,–,–,0.977,> 5,–,–
"A2058 (melanoma, adherent)",0.99,> 2.56,–,–,0.989,> 5,–,–
"TGBC11TKB (stomach, adherent)",0.977,> 2.56,–,–,0.989,> 5,–,–
"SBC-3 (small cell lung carcinoma, adherent)",0.981,> 2.56,–,–,0.963,> 5,–,–
"MC-IXC (neuroblastoma, adherent)",0.96,> 2.56,–,–,0.995,> 5,–,–
"NCI-H2009 (lung adenocarcinoma, adherent)",0.874,> 2.56,–,–,0.966,> 5,–,–
"23132-87 (stomach, adherent)",0.935,> 2.56,–,–,0.96,> 5,–,–
"NCI-H2196 (small cell lung carcinoma, adherent)",0.978,> 2.56,0.98,> 5,–,–,0.987,> 5
"SNU-449 (liver, adherent)",0.838,1.96,–,–,0.986,> 5,–,–

# Source: the supplement of paper PMC4967469
